# This is one part of the list.
# B1: StdA (Salmonella typhimurium), Q8Z3Z0 (protein)
# chain: MAAAGMMYGASVFAADTTPTAGPFGSGKILFTGTITNSPCDIAPGDDAITVPFGQISYRKLNTANATTDSKPFTIHLQNCAFDPNETTIAGSAGKMSKVTVSFSGTADTSGKAYVSTGSAQHVGVQLLKGDNTSLITPNTPMPDGDAQQLQAGNNELNFFARLIALTDAATPGDVNASVTYTLKYL
# Legend:
# Assay in all cases: glycan array binding signal (z-score within array); higher = stronger binding
# Details in all cases: glycan notation: IUPAC condensed, linker removed
# [1] = molecular target: Fuc(a1-3)[Gal(b1-4)]Glc6S
# Procedure, shortened: (§1)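 The binding signal is a Z-score computed within each array. Data were drawn from 3228 arrays in the Consortium for Functional Glycomics database, restricted to those with a known protein sequence. Scores were averaged over arrays of the same protein sequence at different concentrations or buffers, and over linkers, and negative values can be taken as non-binding.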
# [2] = molecular target: Fuc(a1-3)[Gal(b1-4)]GlcNAc
# Procedure, shortened: as §1
# [3] = molecular target: Fuc(a1-3)[Gal(b1-4)]GlcNAc(b1-2)Man(a1-3)[Fuc(a1-3)[Gal(b1-4)]GlcNAc(b1-2)Man(a1-6)]Man(b1-4)GlcNAc(b1-4)GlcNAc
# Procedure, shortened: as §1
# [4] = molecular target: Fuc(a1-3)[Gal(b1-4)]GlcNAc(b1-2)Man(a1-6)[Gal(b1-4)GlcNAc(b1-2)Man(a1-3)]Man(b1-4)GlcNAc(b1-4)GlcNAc
# Procedure, shortened: as §1
# [5] = molecular target: Fuc(a1-3)[Gal(b1-4)]GlcNAc(b1-3)Gal(b1-3)[Fuc(a1-4)]GlcNAc
# Procedure, shortened: as §1
# [6] = molecular target: Fuc(a1-3)[Gal(b1-4)]GlcNAc(b1-4)Gal(b1-4)[Fuc(a1-3)]GlcNAc
# Procedure, shortened: as §1
# [7] = molecular target: Fuc(a1-3)[Gal(b1-4)]GlcNAc(b1-4)Gal(b1-4)[Fuc(a1-3)]GlcNAc(b1-4)Gal(b1-4)[Fuc(a1-3)]GlcNAc
# Procedure, shortened: as §1
# [8] = molecular target: Fuc(a1-3)[Gal(b1-4)]GlcNAc6S
# Procedure, shortened: as §1
# [9] = molecular target: Fuc(a1-3)[Gal3S(b1-4)]Glc6S
# Procedure, shortened: as §1
# [10] = molecular target: Fuc(a1-3)[Gal3S(b1-4)]GlcNAc
# Procedure, shortened: as §1
# [11] = molecular target: Fuc(a1-3)[Gal3S(b1-4)]GlcNAc6S
# Procedure, shortened: as §1
# [12] = molecular target: Fuc(a1-3)[GalNAc(b1-4)]GlcNAc
# Procedure, shortened: as §1
# [13] = molecular target: Fuc(a1-3)[Neu5Ac(a2-3)]Gal(b1-4)GlcNAc(b1-3)GalNAc
# Procedure, shortened: as §1
# [14] = molecular target: Fuc(a1-4)GlcNAc
# Procedure, shortened: as §1
# [15] = molecular target: Fuc(b1-3)GlcNAc
# Procedure, shortened: as §1
# [16] = molecular target: Gal(a1-2)Gal
# Procedure, shortened: as §1
# [17] = molecular target: Gal(a1-3)Gal
# Procedure, shortened: as §1
# [18] = molecular target: Gal(a1-3)Gal(b1-3)GlcNAc
# Procedure, shortened: as §1
# [19] = molecular target: Gal(a1-3)Gal(b1-4)Glc
# Procedure, shortened: as §1
# [20] = molecular target: Gal(a1-3)Gal(b1-4)GlcNAc
# Procedure, shortened: as §1
# [21] = molecular target: Gal(a1-3)Gal(b1-4)[Fuc(a1-3)]GlcNAc
# Procedure, shortened: as §1
# [22] = molecular target: Gal(a1-3)Gal(b1-4)[Fuc(a1-3)]GlcNAc(b1-2)Man(a1-3)[Gal(a1-3)Gal(b1-4)[Fuc(a1-3)]GlcNAc(b1-2)Man(a1-6)]Man(b1-4)GlcNAc(b1-4)GlcNAc
# Procedure, shortened: as §1
# [23] = molecular target: Gal(a1-3)GalNAc
# Procedure, shortened: as §1
# [24] = molecular target: Gal(a1-3)[Gal(a1-4)]Gal(b1-4)GlcNAc
# Procedure, shortened: as §1
# [25] = molecular target: Gal(a1-4)Gal(b1-4)Glc
# Procedure, shortened: as §1
# [26] = molecular target: Gal(a1-4)Gal(b1-4)GlcNAc
# Procedure, shortened: as §1
# [27] = molecular target: Gal(a1-4)Gal(b1-4)GlcNAc(b1-3)Gal(b1-4)Glc
# Procedure, shortened: as §1
# [28] = molecular target: Gal(a1-4)GlcNAc
# Procedure, shortened: as §1
# [29] = molecular target: Gal(a1-6)Glc
# Procedure, shortened: as §1
# [30] = molecular target: Gal(b1-2)Gal
# Procedure, shortened: as §1
# [31] = molecular target: Gal(b1-3)Gal
# Procedure, shortened: as §1
# [32] = molecular target: Gal(b1-3)Gal(b1-4)GlcNAc
# Procedure, shortened: as §1
# [33] = molecular target: Gal(b1-3)Gal(b1-4)GlcNAc(b1-2)Man(a1-3)[Gal(b1-3)Gal(b1-4)GlcNAc(b1-2)Man(a1-6)]Man(b1-4)GlcNAc(b1-4)GlcNAc
# Procedure, shortened: as §1
# [34] = molecular target: Gal(b1-3)GalNAc
# Procedure, shortened: as §1
# [35] = molecular target: Gal(b1-3)GalNAc(a1-3)[Fuc(a1-2)]Gal(b1-4)Glc
# Procedure, shortened: as §1
# [36] = molecular target: Gal(b1-3)GalNAc(a1-3)[Fuc(a1-2)]Gal(b1-4)GlcNAc
# Procedure, shortened: as §1
# [37] = molecular target: Gal(b1-3)GalNAc(b1-3)Gal(a1-4)Gal(b1-4)Glc
# Procedure, shortened: as §1
# [38] = molecular target: Gal(b1-3)GalNAc(b1-4)Gal(b1-4)Glc
# Procedure, shortened: as §1
# [39] = molecular target: Gal(b1-3)GalNAc(b1-4)[Neu5Ac(a2-3)]Gal(b1-4)Glc
# Procedure, shortened: as §1
# [40] = molecular target: Gal(b1-3)GlcNAc
# Procedure, shortened: as §1
# [41] = molecular target: Gal(b1-3)GlcNAc(b1-2)Man(a1-3)[Gal(b1-3)GlcNAc(b1-2)Man(a1-6)]Man(b1-4)GlcNAc(b1-4)GlcNAc
# Procedure, shortened: as §1
# [42] = molecular target: Gal(b1-3)GlcNAc(b1-2)Man(a1-3)[Gal(b1-3)GlcNAc(b1-2)Man(a1-6)]Man(b1-4)GlcNAc(b1-4)[Fuc(a1-6)]GlcNAc
# Procedure, shortened: as §1
# [43] = molecular target: Gal(b1-3)GlcNAc(b1-3)Gal(b1-3)GlcNAc
# Procedure, shortened: as §1
# [44] = molecular target: Gal(b1-3)GlcNAc(b1-3)Gal(b1-4)Glc
# Procedure, shortened: as §1
# [45] = molecular target: Gal(b1-3)GlcNAc(b1-3)Gal(b1-4)GlcNAc
# Procedure, shortened: as §1
binder,measurement,setting,value
B1,glycan array binding signal (z-score),[1],1.41
same,glycan array binding signal (z-score),[2],0.14
same,glycan array binding signal (z-score),[3],0.457
same,glycan array binding signal (z-score),[4],-0.251
same,glycan array binding signal (z-score),[5],0.343
same,glycan array binding signal (z-score),[6],-0.624
same,glycan array binding signal (z-score),[7],-0.498
same,glycan array binding signal (z-score),[8],0.759
same,glycan array binding signal (z-score),[9],6.5
same,glycan array binding signal (z-score),[10],0.034
same,glycan array binding signal (z-score),[11],-0.434
same,glycan array binding signal (z-score),[12],-0.729
same,glycan array binding signal (z-score),[13],4.78
same,glycan array binding signal (z-score),[14],-0.427
same,glycan array binding signal (z-score),[15],-0.73
same,glycan array binding signal (z-score),[16],-0.199
same,glycan array binding signal (z-score),[17],-0.283
same,glycan array binding signal (z-score),[18],-0.688
same,glycan array binding signal (z-score),[19],0.257
same,glycan array binding signal (z-score),[20],-0.552
same,glycan array binding signal (z-score),[21],-0.471
same,glycan array binding signal (z-score),[22],4.97
same,glycan array binding signal (z-score),[23],-0.564
same,glycan array binding signal (z-score),[24],-0.239
same,glycan array binding signal (z-score),[25],-0.601
same,glycan array binding signal (z-score),[26],-0.386
same,glycan array binding signal (z-score),[27],-0.132
same,glycan array binding signal (z-score),[28],-0.031
same,glycan array binding signal (z-score),[29],-0.53
same,glycan array binding signal (z-score),[30],-0.32
same,glycan array binding signal (z-score),[31],-0.363
same,glycan array binding signal (z-score),[32],0.198
same,glycan array binding signal (z-score),[33],-0.295
same,glycan array binding signal (z-score),[34],-0.081
same,glycan array binding signal (z-score),[35],-0.49
same,glycan array binding signal (z-score),[36],0.174
same,glycan array binding signal (z-score),[37],-0.097
same,glycan array binding signal (z-score),[38],0.288
same,glycan array binding signal (z-score),[39],-0.117
same,glycan array binding signal (z-score),[40],-0.002
same,glycan array binding signal (z-score),[41],-0.793
same,glycan array binding signal (z-score),[42],-0.003
same,glycan array binding signal (z-score),[43],-0.674
same,glycan array binding signal (z-score),[44],0.099
same,glycan array binding signal (z-score),[45],-0.222
